According to the supplement of paper PMC10037445:
Values joined by “and” are separate entries in the source; they are usually repeats but may differ in a detail not shown here. Identical values can stand only once. In all, about 2,900 compounds were measured (“IRF Lucia reporter activity, fold change vs agonist alone”: median about 0.9, highest 2% from about 2.8 on). The list shows a part of the results.

Tests used:
RAW-Dual [1] = experiment: IRF Lucia reporter activity, fold change vs agonist alone; cytotoxicity flag (confluency mask): cytotoxic (confluency <70% of control); higher = enhanced IRF activity
Method in brief: (§1)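 After 50 nL of library stock was delivered by pin tool to RAW-Dual macrophages (50,000 cells/well, DMEM, 384-well plates), a PRR agonist was added 1 h later and the plates were kept at 37 °C, 5% CO2. Twenty hours later, IRF was read from supernatant by QuantiLuc luminescence and NF-κB by QuantiBlue absorbance at 620 nm. Reporter activity is stated as fold change over agonist-alone wells. Wells with IncuCyte confluency under 70% of agonist controls in both mask sets were counted as cytotoxic.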

RAW-Dual [2] = experiment: IRF Lucia reporter activity, fold change vs agonist alone; higher = enhanced IRF activity; details: agonist: MPLA (TLR4) […]
Method in brief: as §1

RAW-Dual [3] = experiment: IRF Lucia reporter activity, fold change vs agonist alone; cytotoxicity flag (confluency mask): not cytotoxic; higher = enhanced IRF activity
Method in brief: as §1

[4] = agonist: 3'3'-cGAMP (STING) 10 ug/mL
[5] = library stock concentration (final ~1000-fold dilution): 10 mM, cytotoxicity flag (confluency mask): not cytotoxic

Compound: CC1(C)CCC2=C(O1)c1ccccc1C(=O)C2=O (library stock concentration (final ~1000-fold dilution): 10 mM)
- IRF Lucia reporter activity (RAW-Dual [1]; [4]): 0.00675
- IRF Lucia reporter activity (RAW-Dual [1]; agonist: LPS (TLR4) 0.1 ug/mL): 0.0163

Compound: CC1(C)CCC2=C(O1)c1ccccc1C(=O)C2=O
- IRF Lucia reporter activity (RAW-Dual [2]; library stock concentration (final ~1000-fold dilution): 10 mM, cytotoxicity flag (confluency mask): cytotoxic (confluency <70% of control)): 0.0139

Compound: O=C(NCC(O)CN1CCc2ccccc2C1)c1ccnc(NC2CCC2)c1 (stereo not drawn) (library stock concentration (final ~1000-fold dilution): 10 mM)
- IRF Lucia reporter activity (RAW-Dual [3]; [4]): 0.856
- IRF Lucia reporter activity (RAW-Dual [3]; agonist: LPS (TLR4) 0.1 ug/mL): 1.08

Compound: Nc1nonc1/C(=N\O)Nc1ccc(F)c(Cl)c1 (library stock concentration (final ~1000-fold dilution): 10 mM)
- IRF Lucia reporter activity (RAW-Dual [3]; [4]): 0.359
- IRF Lucia reporter activity (RAW-Dual [3]; agonist: LPS (TLR4) 0.1 ug/mL): 1.06

Compound: CCN1CCN(Cc2ccc(-c3cc4c(NC(C)c5ccccc5)ncnc4[nH]3)cc2)CC1 (stereo not drawn) (library stock concentration (final ~1000-fold dilution): 10 mM)
- IRF Lucia reporter activity (RAW-Dual [3]; [4]): 0.302
- IRF Lucia reporter activity (RAW-Dual [3]; agonist: LPS (TLR4) 0.1 ug/mL): 0.362

Compound: CCN1CCN(Cc2ccc(-c3cc4c(NC(C)c5ccccc5)ncnc4[nH]3)cc2)CC1 (stereo not drawn)
- IRF Lucia reporter activity (RAW-Dual [2]; [5]): 0.506

Compound: CN(CCNCc1cn(Cc2ccc(Cl)cc2)nn1)CCNc1ccnc2cc(Cl)ccc12.O=C(O)C(F)(F)F (library stock concentration (final ~1000-fold dilution): 10 mM)
- IRF Lucia reporter activity (RAW-Dual [1]; [4]): 1.05
- IRF Lucia reporter activity (RAW-Dual [1]; agonist: LPS (TLR4) 0.1 ug/mL): 1.37

Compound: COc1cc2c(OC3OC(CO)C4OC(C)(C)OC4C3O)c3c(c(-c4ccc5c(c4)OCO5)c2cc1OC)C(=O)OC3 (stereo not drawn) (library stock concentration (final ~1000-fold dilution): 10 mM)
- IRF Lucia reporter activity (RAW-Dual [3]; [4]): 0.0793
- IRF Lucia reporter activity (RAW-Dual [3]; agonist: LPS (TLR4) 0.1 ug/mL): 1.2

Compound: CC(=O)Oc1cc2c(s1)CCN(C(C(=O)C1CC1)c1ccccc1F)C2 (stereo not drawn) (library stock concentration (final ~1000-fold dilution): 10 mM)
- IRF Lucia reporter activity (RAW-Dual [3]; [4]): 0.287
- IRF Lucia reporter activity (RAW-Dual [3]; agonist: LPS (TLR4) 0.1 ug/mL): 0.693

Compound: CC(=O)Oc1cc2c(s1)CCN(C(C(=O)C1CC1)c1ccccc1F)C2 (stereo not drawn)
- IRF Lucia reporter activity (RAW-Dual [2]; [5]): 0.38

Compound: CC(C)C(=O)Nc1ccc([N+](=O)[O-])c(C(F)(F)F)c1
- IRF Lucia reporter activity (RAW-Dual [2]; [5]): 0.911

Compound: CC(C)C(=O)Nc1ccc([N+](=O)[O-])c(C(F)(F)F)c1 (library stock concentration (final ~1000-fold dilution): 10 mM)
- IRF Lucia reporter activity (RAW-Dual [3]; [4]): 0.768
- IRF Lucia reporter activity (RAW-Dual [3]; agonist: LPS (TLR4) 0.1 ug/mL): 0.998

Compound: COc1ccc2nc([S+]([O-])Cc3ncc(C)c(OC)c3C)[nH]c2c1 (stereo not drawn) (library stock concentration (final ~1000-fold dilution): 10 mM)
- IRF Lucia reporter activity (RAW-Dual [3]; [4]): 0.948 and 0.888
- IRF Lucia reporter activity (RAW-Dual [3]; agonist: LPS (TLR4) 0.1 ug/mL): 0.903 and 0.88

Compound: CCCCCCCCCCCCCCCC(=O)OC1C(SC)OC(C(NC(=O)C2CC(CCC)CN2C)C(C)Cl)C(O)C1O.Cl (stereo not drawn) (library stock concentration (final ~1000-fold dilution): 10 mM)
- IRF Lucia reporter activity (RAW-Dual [3]; [4]): 1.11
- IRF Lucia reporter activity (RAW-Dual [3]; agonist: LPS (TLR4) 0.1 ug/mL): 1.12

Compound: CCCCCCCCCCCCCCCC(=O)OC1C(SC)OC(C(NC(=O)C2CC(CCC)CN2C)C(C)Cl)C(O)C1O.Cl (stereo not drawn)
- IRF Lucia reporter activity (RAW-Dual [2]; [5]): 1.33

Compound: Cn1c(=O)c2[nH]cnc2n(C)c1=O.Cn1c(=O)c2[nH]cnc2n(C)c1=O.NCCN
- IRF Lucia reporter activity (RAW-Dual [2]; [5]): 0.67

Compound: Cn1c(=O)c2[nH]cnc2n(C)c1=O.Cn1c(=O)c2[nH]cnc2n(C)c1=O.NCCN (library stock concentration (final ~1000-fold dilution): 10 mM)
- IRF Lucia reporter activity (RAW-Dual [3]; [4]): 0.887
- IRF Lucia reporter activity (RAW-Dual [3]; agonist: LPS (TLR4) 0.1 ug/mL): 0.778

Compound: CC(=O)Oc1ccccc1C(=O)O.CC(=O)Oc1ccccc1C(=O)O.NC(N)=O (library stock concentration (final ~1000-fold dilution): 10 mM)
- IRF Lucia reporter activity (RAW-Dual [3]; [4]): 1.05
- IRF Lucia reporter activity (RAW-Dual [3]; agonist: LPS (TLR4) 0.1 ug/mL): 1.2

Compound: CC(=O)Oc1ccccc1C(=O)O.CC(=O)Oc1ccccc1C(=O)O.NC(N)=O
- IRF Lucia reporter activity (RAW-Dual [2]; [5]): 1.01

Compound: COc1cc2nccc(Oc3ccc(NC(=O)C4(C(=O)Nc5ccc(F)cc5)CC4)cc3)c2cc1OC.O=C(O)CC(O)C(=O)O (library stock concentration (final ~1000-fold dilution): 10 mM)
- IRF Lucia reporter activity (RAW-Dual [3]; [4]): 0.054
- IRF Lucia reporter activity (RAW-Dual [3]; agonist: LPS (TLR4) 0.1 ug/mL): 0.507

Compound: COc1cc2nccc(Oc3ccc(NC(=O)C4(C(=O)Nc5ccc(F)cc5)CC4)cc3)c2cc1OC.O=C(O)CC(O)C(=O)O
- IRF Lucia reporter activity (RAW-Dual [2]; [5]): 0.572

Compound: Cl.Cl.O=S(=O)(NCCNC/C=C/c1ccc(Br)cc1)c1cccc2cnccc12 (library stock concentration (final ~1000-fold dilution): 10 mM)
- IRF Lucia reporter activity (RAW-Dual [3]; [4]): 0.867
- IRF Lucia reporter activity (RAW-Dual [3]; agonist: LPS (TLR4) 0.1 ug/mL): 0.926

Compound: Cl.Cl.O=S(=O)(NCCNC/C=C/c1ccc(Br)cc1)c1cccc2cnccc12
- IRF Lucia reporter activity (RAW-Dual [2]; [5]): 1.34

Compound: O=C(O)CSCC(=O)NC1CCSC1=O (stereo not drawn) (library stock concentration (final ~1000-fold dilution): 10 mM)
- IRF Lucia reporter activity (RAW-Dual [3]; [4]): 1.03
- IRF Lucia reporter activity (RAW-Dual [3]; agonist: LPS (TLR4) 0.1 ug/mL): 1.21

Compound: CC(C)(C)Cn1c(N)nc2ccc(-c3[nH]c(C(C)(C)C)nc3-c3ccc(F)cc3)nc21.CS(=O)(=O)O.CS(=O)(=O)O
- IRF Lucia reporter activity (RAW-Dual [2]; library stock concentration (final ~1000-fold dilution): 10 mM water, cytotoxicity flag (confluency mask): not cytotoxic): 1.32

Compound: CC(C)(C)Cn1c(N)nc2ccc(-c3[nH]c(C(C)(C)C)nc3-c3ccc(F)cc3)nc21.CS(=O)(=O)O.CS(=O)(=O)O (library stock concentration (final ~1000-fold dilution): 10 mM water)
- IRF Lucia reporter activity (RAW-Dual [3]; [4]): 0.962
- IRF Lucia reporter activity (RAW-Dual [3]; agonist: LPS (TLR4) 0.1 ug/mL): 0.696

Compound: COc1ccccc1C(=O)Nc1cc2c(cc1N1CCNCC1C)n(C)c(=O)n2C (stereo not drawn) (library stock concentration (final ~1000-fold dilution): 10 mM)
- IRF Lucia reporter activity (RAW-Dual [3]; [4]): 0.61
- IRF Lucia reporter activity (RAW-Dual [3]; agonist: LPS (TLR4) 0.1 ug/mL): 0.729

Compound: Cn1cc(-c2ccc3nnc(Sc4ccc5ncccc5c4)n3n2)cn1 (library stock concentration (final ~1000-fold dilution): 2 mM)
- IRF Lucia reporter activity (RAW-Dual [3]; [4]): 0.896
- IRF Lucia reporter activity (RAW-Dual [3]; agonist: LPS (TLR4) 0.1 ug/mL): 0.852

Compound: Cn1cc(-c2ccc3nnc(Sc4ccc5ncccc5c4)n3n2)cn1
- IRF Lucia reporter activity (RAW-Dual [2]; library stock concentration (final ~1000-fold dilution): 2 mM, cytotoxicity flag (confluency mask): not cytotoxic): 1.13

Compound: CC#Cc1cncc(-c2ccc3c(c2)C2(N=C(C)C(N)=N2)C2(CCC(OC)CC2)C3)c1 (stereo not drawn) (library stock concentration (final ~1000-fold dilution): 10 mM)
- IRF Lucia reporter activity (RAW-Dual [3]; [4]): 0.383
- IRF Lucia reporter activity (RAW-Dual [3]; agonist: LPS (TLR4) 0.1 ug/mL): 1.1

Compound: O=C1NC(=O)/C(=C/c2cccc(C(F)(F)F)c2)S1 (library stock concentration (final ~1000-fold dilution): 10 mM)
- IRF Lucia reporter activity (RAW-Dual [3]; [4]): 0.789
- IRF Lucia reporter activity (RAW-Dual [3]; agonist: LPS (TLR4) 0.1 ug/mL): 0.966

Compound: CC1(C)CCC2(C(=O)O)CCC3(CO)C(=CCC4C5(C)CC(O)C(OC6OC(CO)C(O)C(O)C6O)C(C)(C(=O)O)C5CCC43C)C2C1 (stereo not drawn) (library stock concentration (final ~1000-fold dilution): 10 mM)
- IRF Lucia reporter activity (RAW-Dual [3]; [4]): 0.854
- IRF Lucia reporter activity (RAW-Dual [3]; agonist: LPS (TLR4) 0.1 ug/mL): 1.11
